Measurements from the supplement of paper PMC8728848.
The other results are listed elsewhere or left out.

How the values were obtained:
Test in all cases: glycan array binding signal (z-score within array); higher = stronger binding
Conditions in all cases: glycan notation: IUPAC condensed, linker removed
[1] = biological target: Neu5Ac(a2-3)Gal(b1-4)GlcNAc(b1-2)[Neu5Ac(a2-3)Gal(b1-4)GlcNAc(b1-4)]Man(a1-3)[GlcNAc(b1-4)][Neu5Ac(a2-3)Gal(b1-4)GlcNAc(b1-2)[Neu5Ac(a2-3)Gal(b1-4)GlcNAc(b1-6)]Man(a1-6)]Man(b1-4)GlcNAc(b1-4)GlcNAc
Method in brief: (§1)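 From the Consortium for Functional Glycomics database, 3228 arrays were curated, keeping only those whose protein sequence was available. Binding is given as a within-array Z-score averaged across arrays sharing a protein sequence and across linkers. Negative Z-scores can be read as non-binding.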

[2] = biological target: Neu5Ac(a2-3)Gal(b1-4)GlcNAc(b1-2)[Neu5Ac(a2-3)Gal(b1-4)GlcNAc(b1-4)]Man(a1-3)[GlcNAc(b1-4)][Neu5Ac(a2-3)Gal(b1-4)GlcNAc(b1-4)Man(a1-6)]Man(b1-4)GlcNAc(b1-4)GlcNAc
Method in brief: as §1

[3] = biological target: Neu5Ac(a2-3)Gal(b1-4)GlcNAc(b1-2)[Neu5Ac(a2-3)Gal(b1-4)GlcNAc(b1-6)]Man(a1-6)[Neu5Ac(a2-3)Gal(b1-4)GlcNAc(b1-2)Man(a1-3)][GlcNAc(b1-4)]Man(b1-4)GlcNAc(b1-4)GlcNAc
Method in brief: as §1

[4] = biological target: Neu5Ac(a2-3)Gal(b1-4)GlcNAc(b1-3)Gal
Method in brief: as §1

[5] = biological target: Neu5Ac(a2-3)Gal(b1-4)GlcNAc(b1-3)Gal(b1-3)GlcNAc
Method in brief: as §1

[6] = biological target: Neu5Ac(a2-3)Gal(b1-4)GlcNAc(b1-3)Gal(b1-4)GlcNAc
Method in brief: as §1

[7] = biological target: Neu5Ac(a2-3)Gal(b1-4)GlcNAc(b1-3)Gal(b1-4)GlcNAc(b1-2)Man(a1-3)[Neu5Ac(a2-3)Gal(b1-4)GlcNAc(b1-3)Gal(b1-4)GlcNAc(b1-2)Man(a1-6)]Man(b1-4)GlcNAc(b1-4)GlcNAc
Method in brief: as §1

[8] = biological target: Neu5Ac(a2-3)Gal(b1-4)GlcNAc(b1-3)Gal(b1-4)GlcNAc(b1-3)Gal(b1-4)GlcNAc
Method in brief: as §1

[9] = biological target: Neu5Ac(a2-3)Gal(b1-4)GlcNAc(b1-3)Gal(b1-4)GlcNAc(b1-3)Gal(b1-4)GlcNAc(b1-2)Man(a1-3)[Neu5Ac(a2-3)Gal(b1-4)GlcNAc(b1-3)Gal(b1-4)GlcNAc(b1-3)Gal(b1-4)GlcNAc(b1-2)Man(a1-6)]GalNAc
Method in brief: as §1

[10] = biological target: Neu5Ac(a2-3)Gal(b1-4)GlcNAc(b1-3)Gal(b1-4)GlcNAc(b1-3)GalNAc
Method in brief: as §1

[11] = biological target: Neu5Ac(a2-3)Gal(b1-4)GlcNAc(b1-3)Gal(b1-4)GlcNAc(b1-3)[Neu5Ac(a2-3)Gal(b1-4)GlcNAc(b1-3)Gal(b1-4)GlcNAc(b1-6)]GalNAc
Method in brief: as §1

[12] = biological target: Neu5Ac(a2-3)Gal(b1-4)GlcNAc(b1-3)Gal(b1-4)GlcNAc(b1-6)[Gal(b1-3)]GalNAc
Method in brief: as §1

[13] = biological target: Neu5Ac(a2-3)Gal(b1-4)GlcNAc(b1-3)Gal(b1-4)[Fuc(a1-3)]GlcNAc
Method in brief: as §1

[14] = biological target: Neu5Ac(a2-3)Gal(b1-4)GlcNAc(b1-3)GalNAc
Method in brief: as §1

[15] = biological target: Neu5Ac(a2-3)Gal(b1-4)GlcNAc(b1-3)[Neu5Ac(a2-3)Gal(b1-4)GlcNAc(b1-6)]GalNAc
Method in brief: as §1

[16] = biological target: Neu5Ac(a2-3)Gal(b1-4)GlcNAc(b1-6)GalNAc
Method in brief: as §1

[17] = biological target: Neu5Ac(a2-3)Gal(b1-4)GlcNAc(b1-6)[Gal(b1-3)]GalNAc
Method in brief: as §1

[18] = biological target: Neu5Ac(a2-3)Gal(b1-4)GlcNAc(b1-6)[Neu5Ac(a2-3)Gal(b1-3)]GalNAc
Method in brief: as §1

[19] = biological target: Neu5Ac(a2-3)Gal(b1-4)GlcNAc6S
Method in brief: as §1

[20] = biological target: Neu5Ac(a2-3)Gal(b1-4)[Fuc(a1-3)]GlcNAc
Method in brief: as §1

[21] = biological target: Neu5Ac(a2-3)Gal(b1-4)[Fuc(a1-3)]GlcNAc(b1-2)Man
Method in brief: as §1

[22] = biological target: Neu5Ac(a2-3)Gal(b1-4)[Fuc(a1-3)]GlcNAc(b1-3)Gal
Method in brief: as §1

[23] = biological target: Neu5Ac(a2-3)Gal(b1-4)[Fuc(a1-3)]GlcNAc(b1-3)Gal(b1-4)GlcNAc
Method in brief: as §1

[24] = biological target: Neu5Ac(a2-3)Gal(b1-4)[Fuc(a1-3)]GlcNAc(b1-3)Gal(b1-4)[Fuc(a1-3)]GlcNAc(b1-3)Gal(b1-4)[Fuc(a1-3)]GlcNAc
Method in brief: as §1

[25] = biological target: Neu5Ac(a2-3)Gal(b1-4)[Fuc(a1-3)]GlcNAc(b1-3)GalNAc
Method in brief: as §1

[26] = biological target: Neu5Ac(a2-3)Gal(b1-4)[Fuc(a1-3)]GlcNAc(b1-6)[Gal(b1-3)]GalNAc
Method in brief: as §1

[27] = biological target: Neu5Ac(a2-3)Gal(b1-4)[Fuc(a1-3)]GlcNAc(b1-6)[Neu5Ac(a2-3)Gal(b1-3)]GalNAc
Method in brief: as §1

[28] = biological target: Neu5Ac(a2-3)Gal(b1-4)[Fuc(a1-3)]GlcNAc6S
Method in brief: as §1

[29] = biological target: Neu5Ac(a2-3)Gal6S(b1-4)GlcNAc
Method in brief: as §1

[30] = biological target: Neu5Ac(a2-3)Gal6S(b1-4)[Fuc(a1-3)]GlcNAc
Method in brief: as §1

Neu5Ac(a2-3)GalNAc = biological target: Neu5Ac(a2-3)GalNAc
Method in brief: as §1

[31] = biological target: Neu5Ac(a2-3)GalNAc(b1-4)GlcNAc
Method in brief: as §1

[32] = biological target: Neu5Ac(a2-3)[GalNAc(b1-4)]Gal(b1-4)Glc
Method in brief: as §1

[33] = biological target: Neu5Ac(a2-3)[GalNAc(b1-4)]Gal(b1-4)GlcNAc
Method in brief: as §1

[34] = biological target: Neu5Ac(a2-3)[GalNAc(b1-4)]Gal(b1-4)GlcNAc(b1-3)GalNAc
Method in brief: as §1

[35] = biological target: Neu5Ac(a2-3)[Neu5Ac(a2-6)]GalNAc
Method in brief: as §1

Neu5Ac(a2-6)Gal = biological target: Neu5Ac(a2-6)Gal
Method in brief: as §1

[36] = biological target: Neu5Ac(a2-6)Gal(b1-3)GlcNAc(b1-3)[Gal(b1-4)GlcNAc(b1-6)]Gal(b1-4)Glc
Method in brief: as §1

Neu5Ac(a2-6)Gal(b1-4)Glc = biological target: Neu5Ac(a2-6)Gal(b1-4)Glc
Method in brief: as §1

[37] = biological target: Neu5Ac(a2-6)Gal(b1-4)GlcNAc
Method in brief: as §1

[38] = biological target: Neu5Ac(a2-6)Gal(b1-4)GlcNAc(b1-2)Man
Method in brief: as §1

[39] = biological target: Neu5Ac(a2-6)Gal(b1-4)GlcNAc(b1-2)Man(a1-3)Man(b1-4)GlcNAc(b1-4)GlcNAc
Method in brief: as §1

[40] = biological target: Neu5Ac(a2-6)Gal(b1-4)GlcNAc(b1-2)Man(a1-3)[Gal(b1-4)GlcNAc(b1-2)Man(a1-6)]Man(b1-4)GlcNAc(b1-4)GlcNAc
Method in brief: as §1

[41] = biological target: Neu5Ac(a2-6)Gal(b1-4)GlcNAc(b1-2)Man(a1-3)[GlcNAc(b1-2)Man(a1-6)]Man(b1-4)GlcNAc(b1-4)GlcNAc
Method in brief: as §1

[42] = biological target: Neu5Ac(a2-6)Gal(b1-4)GlcNAc(b1-2)Man(a1-3)[GlcNAc(b1-4)][Neu5Ac(a2-6)Gal(b1-4)GlcNAc(b1-2)Man(a1-6)]Man(b1-4)GlcNAc(b1-4)GlcNAc
Method in brief: as §1

B1: HPL (Tachypleus tridentatus) (protein)
chain: MEDDCTCVTDRSLEGKLMKHPSTPAVYQILDGCRRLVPNPPTYNNIYKNWECIQSNILEKLLCKCDSLSNGAELIKGSGDTVYLLSNGVKRPIADPETFNGFCFDWNKIKTYSDIVINSLSTGPIIIIKHHHHHH
glycan array binding signal (z-score) [1]: -0.344
glycan array binding signal (z-score) [2]: -0.189
glycan array binding signal (z-score) [3]: -0.292
glycan array binding signal (z-score) [4]: -0.418
glycan array binding signal (z-score) [5]: -0.333
glycan array binding signal (z-score) [6]: -0.19
glycan array binding signal (z-score) [7]: 0.434
glycan array binding signal (z-score) [8]: -0.261
glycan array binding signal (z-score) [9]: 1.54
glycan array binding signal (z-score) [10]: -0.193
glycan array binding signal (z-score) [11]: 0.27
glycan array binding signal (z-score) [12]: 0.185
glycan array binding signal (z-score) [13]: 0.12
glycan array binding signal (z-score) [14]: -0.163
glycan array binding signal (z-score) [15]: -0.093
glycan array binding signal (z-score) [16]: 0.147
glycan array binding signal (z-score) [17]: 0.429
glycan array binding signal (z-score) [18]: -0.253
glycan array binding signal (z-score) [19]: -0.213
glycan array binding signal (z-score) [20]: -0.326
glycan array binding signal (z-score) [21]: -0.18
glycan array binding signal (z-score) [22]: -0.447
glycan array binding signal (z-score) [23]: -0.314
glycan array binding signal (z-score) [24]: 0.082
glycan array binding signal (z-score) [25]: 0.177
glycan array binding signal (z-score) [26]: 0.043
glycan array binding signal (z-score) [27]: 0.806
glycan array binding signal (z-score) [28]: -0.273
glycan array binding signal (z-score) [29]: -0.421
glycan array binding signal (z-score) [30]: -0.291
glycan array binding signal (z-score) (Neu5Ac(a2-3)GalNAc): -0.219
glycan array binding signal (z-score) [31]: -0.267
glycan array binding signal (z-score) [32]: -0.391
glycan array binding signal (z-score) [33]: -0.232
glycan array binding signal (z-score) [34]: -0.001
glycan array binding signal (z-score) [35]: -0.029
glycan array binding signal (z-score) (Neu5Ac(a2-6)Gal): -0.478
glycan array binding signal (z-score) [36]: -0.336
glycan array binding signal (z-score) (Neu5Ac(a2-6)Gal(b1-4)Glc): -0.295
glycan array binding signal (z-score) [37]: -0.277
glycan array binding signal (z-score) [38]: 0.59
glycan array binding signal (z-score) [39]: 0.129
glycan array binding signal (z-score) [40]: -0.071
glycan array binding signal (z-score) [41]: -0.18
glycan array binding signal (z-score) [42]: -0.365
